Laboratory results published in PubChem BioAssay AID894 (National Center for Advancing Translational Sciences (NCATS), 2007).
The campaign covered roughly 150,000 compounds. About 6,500 (4.3%) were called active. The shares of active, inactive and inconclusive entries below differ from those in the screen. Calls follow the shape of the dose curve; as a rule, active = well fitted inhibition curve with a large enough effect (not every such curve was filed as active); inconclusive = small, poorly fitted or top-dose-only effect, or another doubt; inactive = no such curve, though single readings can be large or run the other way. Where the call is inconclusive, the potency comes from a doubtful curve fit.

Target: 15-hydroxyprostaglandin dehydrogenase [NAD(+)] (Homo sapiens) (UniProt P15428)
UniProt P15428, sequence (P15428 whole entry, looked up): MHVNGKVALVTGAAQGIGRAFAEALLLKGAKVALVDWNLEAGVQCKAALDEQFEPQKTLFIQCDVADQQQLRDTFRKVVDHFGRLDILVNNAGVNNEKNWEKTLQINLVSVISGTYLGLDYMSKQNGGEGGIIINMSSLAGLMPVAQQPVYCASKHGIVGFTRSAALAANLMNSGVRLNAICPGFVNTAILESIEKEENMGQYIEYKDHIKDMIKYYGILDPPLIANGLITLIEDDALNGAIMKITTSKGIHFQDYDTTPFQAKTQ
Assay: qHTS Assay for Inhibitors of HPGD (15-Hydroxyprostaglandin Dehydrogenase)
Settings: purified HPGD, NADH fluorescence kinetic, PGE2 substrate; activity change, negative = inhibition: active compounds read low
How it was run: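 20 nM HPGD preincubated 15 min at room temperature with compound in 50 mM Tris-HCl pH 8, 0.01% Tween 20. Started with 1 mM NAD+ and 30 uM prostaglandin E2; NADH fluorescence (360/450 nm) read 5 times over 30-s intervals, last minus first.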
% is scaled to controls: 0 for no effect and ±100 for the full control effect; potency is read from the fitted curve at half-maximal effect; tags tell the direction and shape of the fitted curve.

Potency, active:
O=C(/N=C1\NC(=O)C(F)(C(F)(F)F)S1)NC1CCCCC1 (stereo unspecified) 7.94 µM
Cc1cc(=O)[nH]c(SCC(=O)Nc2ccc(C(=O)O)cc2)n1 22.4 µM
COc1ccccc1NC(=O)COc1ccc(/C=N/NS(=O)(=O)c2ccc(C)cc2)cc1 15.8 µM
c1ccc2c(c1)OCC(c1nn3c(Cn4nnc5ccccc54)nnc3s1)O2 (stereo unspecified) 10 µM
COc1ccc(-n2c(SCCC#N)nnc2-c2cc(Cl)ccc2OC)cc1Cl 20 µM
COc1ccc([N+](=O)[O-])cc1N(CC(O)Cn1nnc2ccccc21)S(=O)(=O)c1ccc(C)cc1 (stereo unspecified) 28.2 µM
O=C(CCC1CCCCC1)Nc1ccccc1O 20 µM
C=C1C(=O)C=C2CN(C(=O)c3ccccc3)[C@@](Cc3ccc(OC)cc3)(C(=O)OC)[C@@H]12 7.08 µM
CCCC(=O)Nc1nc(C)c(-c2csc(Nc3ccccc3C)n2)s1 31.6 µM
CN(Cc1ccccc1)C(=O)c1ccc2c(c1)OCCO2 14.1 µM
O=C(NCc1ccco1)c1cccc(-c2nnc(-c3ccccc3)o2)c1 12.6 µM
O=C(NCC1CCCO1)NC1CCCCC1 (stereo unspecified) 28.2 µM

Potency, inconclusive:
O=C(c1cccs1)n1nc(-c2ccccc2)nc1NCc1ccc(F)cc1 35.5 µM [inhibitor, single point]
O=C(NCc1ccc(N2CCCC2=O)cc1)Nc1cccc(Cl)c1 15.8 µM [inhibitor, partial curve]
CN(C)S(=O)(=O)c1ccc(N2CCCC2)c(C(=O)Nc2nc(-c3cc(F)ccc3F)cs2)c1 39.8 µM [inhibitor, single point]
Cc1ccc(NC(=O)CSc2nc3c(c(=O)[nH]2)CCC3)cc1C 31.6 µM [inhibitor, single point]
CCOC(=O)c1c(-n2cnnn2)sc(C)c1C 31.6 µM [inhibitor, partial curve]
COCCOC(=O)C1=C(C)NC2=C(C(=O)CC(C)(C)C2)C1c1ccc2c(c1)OCO2 (stereo unspecified) 39.8 µM [inhibitor, single point]
CCOC(=O)c1ccc(NS(=O)(=O)c2ccc3c(c2)CCCN3C(C)=O)cc1 35.5 µM [inhibitor, single point]
COc1ccc(OCc2nn3c(-c4cccc(OC)c4)nnc3s2)cc1 10 µM [inhibitor, partial curve, poor fit]
c1ccc2c(-c3nc(-c4ccncc4)no3)cccc2c1 31.6 µM [inhibitor, partial curve]
O=S(=O)(Cc1ccc(Cl)cc1)c1ccccc1-c1nnc(-c2ccc(Cl)cc2)o1 15.8 µM [inhibitor, partial curve]
CC1CCN(c2oc(-c3cccc4ccccc34)nc2C#N)CC1 31.6 µM [inhibitor, partial curve]
O=C(/C=C/c1cccs1)Nc1ccc(N2CCOCC2)c(S(=O)(=O)Nc2cc(Cl)ccc2Cl)c1 22.4 µM [inhibitor, partial curve]
COCCNC(=O)c1c(N)n(-c2cccc(C)c2)c2nc3ccccc3nc12 28.2 µM [inhibitor, partial curve]
COc1ccc(CNC(=O)COC(=O)c2cc(-c3cccs3)nc3ccccc23)cc1OC 31.6 µM [inhibitor, partial curve]
Cn1c2ccc(F)cc2c2ncn(CCCN(CCO)CCO)c(=O)c21 31.6 µM [inhibitor, partial curve]
Cn1c(=O)c(-c2cc(F)cc(F)c2)nc2cnc(Oc3ccccc3)nc21 28.2 µM [inhibitor, single point]
O=C1c2ccccc2NC(c2ccccc2)N1Cc1ccco1 (stereo unspecified) 25.1 µM [inhibitor, partial curve]
CSc1nnc(-c2sc3cc(C(F)(F)F)cnc3c2-c2ccccn2)n1C 31.6 µM [inhibitor, partial curve]
Cc1ccc(C23CC4CC(CC(NC(=O)NC(C)(C)CO)(C4)C2)C3)cc1 35.5 µM [inhibitor, partial curve]
CNC(=O)c1cc2c(=O)n3cc(C)ccc3nc2n(C(C)C)c1=N 12.6 µM [inhibitor, partial curve]
COC(=O)c1ccccc1SC1CC(=O)N(c2cccc(C)c2)C1=O (stereo unspecified) 20 µM [inhibitor, partial curve]
Cc1ccc(S(=O)(=O)c2nc(NC3CCS(=O)(=O)C3)sc2Cl)cc1 (stereo unspecified) 39.8 µM [inhibitor, single point]
O=C(Nc1ccc2nc(-c3ccco3)c(-c3ccco3)nc2c1)N1CCN(c2ccccn2)CC1 7.94 µM [inhibitor, partial curve]
CCOC(=O)C1=C(C)NC2=C(C(=O)CC(C)(C)C2)C1c1ccc2c(c1)CCCN2C (stereo unspecified) 28.2 µM [inhibitor, single point]
Nc1c(C(=O)NCCC2=CCCCC2)sc2ccc(S(=O)(=O)N3CCCCC3)cc12 20 µM [inhibitor, partial curve]
COc1ccc(-c2nnc(NC(=O)C3CCCO3)s2)cc1 (stereo unspecified) 22.4 µM [inhibitor, partial curve]
Cc1ccccc1N(CC(=O)NC1CCCC1)C(=O)C1(C)CC(=O)N=C2C=CC=CN21 (stereo unspecified) 31.6 µM [inhibitor, partial curve]
CC[C@H]1C(c2cccc(Cl)c2)=NN(c2ccccc2)[C@@H]1CO 11.2 µM [inhibitor, full curve]
CCOC(=O)c1c(-c2ccc(C)cc2)csc1NC(=O)c1ccc(N2C(=O)CCC2=O)cc1 35.5 µM [inhibitor, partial curve]
COc1ccc(C(=O)CN2CCN(S(=O)(=O)c3cccc([N+](=O)[O-])c3)CC2)cc1OC 35.5 µM [inhibitor, single point]
COc1ccc(C(=O)Cn2nnc(-c3ccccc3NC(=O)c3ccco3)n2)cc1 31.6 µM [inhibitor, partial curve]
CN(c1nc2ccccc2n2c(-c3ccco3)nnc12)S(=O)(=O)c1ccccc1 28.2 µM [inhibitor, partial curve]
Cc1cc(C=O)c(C)n1-c1ccc(NC2CCCC2)c([N+](=O)[O-])c1 25.1 µM [inhibitor, partial curve]
CC(C)Cn1cc(C(=O)NCCCN2CCCC2=O)c2c3ccccc3n(C)c2c1=O 28.2 µM [inhibitor, single point]
O=C(COC(=O)c1ccccc1)c1ccc(Br)cc1 14.1 µM [inhibitor, partial curve]
Cc1nc2nc(-c3ccco3)[nH]n2c(=O)c1C 28.2 µM [inhibitor, partial curve]
COc1ccc(/C=N/NC(=O)c2ccc(CSc3nc(C)cc(C)n3)cc2)cc1O 31.6 µM [inhibitor, partial curve]
COc1ccc(C(=O)Nc2ccccc2C(=O)N/N=C/c2ccccc2OC)cc1 28.2 µM [inhibitor, single point]
COc1ccc(-n2ncc3c(NCc4ccc5c(c4)OCO5)ncnc32)cc1 20 µM [inhibitor, partial curve]

Activity change, negative = inhibition, inactive:
O=C(C/C=N/OCc1ccccc1F)c1cnc(-c2ccc(Cl)cc2)s1 -13.8%
Cn1c(SCC(=O)NCc2ccc3c(c2)OCO3)nc2scc(-c3cccs3)c2c1=O -16.6%
C(=NCCCN1CCOCC1)c1ccc2c(c1)OCO2 -18.9%
CCC(CC)c1nnc(NC(=O)c2ccc(N3CCCCC3)c([N+](=O)[O-])c2)s1 -25.9%
Cc1ccccc1NN1C(=O)C=CC1=O -2.08%
O=C(NC(NC1CCS(=O)(=O)C1)C(=O)c1cccs1)c1ccccc1 (stereo unspecified) -10.8%
CCOC(=O)C1=NN(c2cccc(C)c2)C2(S1)SC(C(C)=O)=C(C)N2c1ccccc1 (stereo unspecified) -20.9%
CCC(=O)NC(C)C(c1cccs1)N1CCN(Cc2ccccc2)CC1 (stereo unspecified) -8.44%
COc1ccc(NC(=O)N2CC3(CCN(C(=O)c4ccncc4)CC3)C2)cc1 -2.75%
Cc1ccc(Sc2cc(Cl)nc(N)n2)cc1 -0.0018%
CCOC(=O)CNC(=O)C1CCCN(c2ncccn2)C1 (stereo unspecified) -18.6%
CCOc1ccccc1NC(=S)N(Cc1cc2ccc(C)cc2[nH]c1=O)CC1CCCN1CC (stereo unspecified) -6.31%
CCCNC(=S)Nc1cccc(C(F)(F)F)c1 -9.07%
O=C1CC(C(=O)Nc2ncccn2)C(c2ccccc2)O1 (stereo unspecified) -9.76%
O=C(N/N=C/c1ccccc1)c1ccc(N2CCOCC2)c([N+](=O)[O-])c1 -26.3%
Cc1c(Cl)c([N+](=O)[O-])nn1CCCC(=O)Nc1ccc(Cl)cc1Cl -4%
CCOc1ncccc1C(=O)Oc1ccc2c(c1)OCO2 -3.76%
CCOC(=O)CNC(=O)c1ccccc1Br -27%
CCOC(=O)CSc1nc(Nc2ccc3c(c2)OCO3)c2ccccc2n1 -24.6%
COc1ccc(Nc2ccc3nnc(-c4ccc(Br)cc4)n3n2)cc1 -0.334%
